Laboratory results published in the supplement of paper PMC4166925.
± gives the standard deviation of the averaged measurements. The full ranking holds about 33,000 sequences; the median of “E-score (dimensionless, -0.5 to 0.5)” is about -0.049, and the highest 2% start at about 0.37. Some of the results follow.

Tested on: T1, PmTbr T-box DNA-binding domain (GST fusion)
T1 sequence: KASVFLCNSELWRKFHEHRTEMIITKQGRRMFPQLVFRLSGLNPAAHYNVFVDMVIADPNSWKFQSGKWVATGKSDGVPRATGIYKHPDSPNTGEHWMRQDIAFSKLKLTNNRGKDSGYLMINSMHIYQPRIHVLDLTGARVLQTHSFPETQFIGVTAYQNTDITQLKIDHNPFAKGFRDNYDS
Experiment: PBM E-score of 8-mer (E-score (dimensionless, -0.5 to 0.5)); Tbr is Tbrain of the sea star Patiria miniata (Pm) or the sea urchin Strongylocentrotus purpuratus (Sp); higher = stronger binding preference; most listed sequences are background and not binding sites
Settings: the construct has about 5 more residues each side
How it was run: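 Primer extension turned Universal Agilent oligonucleotide arrays double-stranded. They were incubated with 200 nM protein in PBS (pH 7.5); the protein was a GST-fused Tbr T-box DNA-binding domain expressed in BL21 E. coli at 20 °C and purified on glutathione. Every ungapped 8-mer was scored from the scanned, quantified probe intensities, and the Universal PBM Analysis Suite gave each an enrichment E-score averaged over duplicate arrays.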

Sequence | PBM E-score of 8-mer
ATGAGCTG | -0.0111 ± 0.047
ATAGCGCC | 0.26087 ± 0.0002
CAAGCAGA | -0.157 ± 0.0024
CAACCGGC | -0.191 ± 0.091
ATTAGCTA | 0.0681 ± 0.014
ATTCGCCC | -0.0514 ± 0.013
AGGCTTTG | -0.186 ± 0.034
CCGTGACA | 0.299 ± 0.0035
CGGGTGGC | 0.129 ± 0.034
GATCTGTA | -0.135 ± 0.06
AGGTCATG | -0.0844 ± 0.015
GTATCTGA | -0.173 ± 0.076
AGGTCAGA | -0.172 ± 0.025
TTAGTCAA | -0.0842 ± 0.046
ATGCTCGG | 0.00834 ± 0.022
CTCCCGGC | -0.122 ± 0.055
AAGTGGAT | -0.0138 ± 0.035
AAACGTCT | -0.208 ± 0.056
CGTTGTCA | 0.347 ± 0.031
CCGAGGCC | -0.139 ± 0.043
ATACTTCC | 0.0697 ± 0.018
CAACTGTC | 0.291 ± 0.0097
GAATACTC | -0.0525 ± 0.02
ATACGAGA | -0.185 ± 0.014
ACGTGGGG | -0.0498 ± 0.054

Sequence | PBM E-score of 8-mer
GACTGGGC | -0.259 ± 0.055
GTCGATGA | 0.111 ± 0.046
CGATCTGC | 0.0177 ± 0.039
GCGAGGTA | 0.103 ± 0.0088
CGTTGAAG | 0.0833 ± 0.0023
AGTCAGCA | -0.13 ± 0.051
ACAGGGGA | -0.0417 ± 0.069
CCTTGTCC | -0.0947 ± 0.035
TACGTGGA | -0.0875 ± 0.034
CTCTGCTC | -0.13866 ± 2.8e-05
AGCTTAAT | -0.16 ± 0.0074
CCTCTAGA | -0.197 ± 0.031
ATACTTGC | 0.149 ± 0.029
GCGAGTAC | 0.109 ± 0.05
CCGCAAAA | 0.0227 ± 0.073
ATTAGACC | -0.245 ± 0.018
AGGACCCC | -0.311 ± 0.086
CGGGCCCA | -0.334 ± 0.045
CCGATTCA | -0.0688 ± 0.006
GTGGGAAA | 0.269 ± 0.022
CAACGACC | -0.118 ± 0.069
CTCACCCA | 0.118 ± 0.055
CCGGGTAC | -0.053 ± 0.0016
ATTAGTAG | 0.0155 ± 0.063
GACTATCC | -0.158 ± 0.048

Sequence | PBM E-score of 8-mer
CTCCCATC | -0.228 ± 0.084
GCCACGGA | -0.125 ± 0.044
AACAACTT | 0.103 ± 0.065
CAGAGACA | 0.0652 ± 0.0091
ACACCTCT | 0.48594 ± 0.00022
GAATTAGA | -0.223 ± 0.017
ACACTTTG | 0.404 ± 0.014
ACAACTTC | 0.107 ± 0.031
CGGCCTCA | -0.292 ± 0.062
TTATGAAA | 0.00194 ± 0.088
AGCTCGTC | -0.235 ± 0.058
GCTGCAAA | 0.00913 ± 0.022
CACTCCGG | 0.246 ± 0.017
CAATCCTG | 0.162 ± 0.015
ATGGCTGA | -0.243 ± 0.007
CGCCGGAC | -0.228 ± 0.082
AATCGAAG | -0.0883 ± 0.024
ATTTGCGG | -0.0635 ± 0.011
CCGATGCC | -0.264 ± 0.018
TAGCGAGA | 0.212 ± 0.05
AACCCTCT | -0.212 ± 0.02
AGCCTAGC | -0.00521 ± 0.12
AGACCCGA | 0.142 ± 0.031
CCGCGTCA | 0.167 ± 0.034
TGCTACCA | 0.0193 ± 0.032

Sequence | PBM E-score of 8-mer
CTACACTC | 0.0444 ± 0.021
TAGCACGA | 0.199 ± 0.039
ACCTCTTG | 0.138 ± 0.027
AACCCGAA | -0.0671 ± 0.0056
AACGGCGT | 0.0826 ± 0.036
CGACTTAG | 0.156 ± 0.015
AGTACGAG | -0.162 ± 0.05
GCTAACTA | 0.212 ± 0.07
ACTCTTCG | 0.159 ± 0.033
GCCCTAAA | -0.147 ± 0.072
GCCCCTTA | -0.211 ± 0.061
ACTAACAT | -0.0831 ± 0.041
ACCAAACG | 0.0138 ± 0.029
GAGTTTAC | 0.0822 ± 0.021
ACTCCAGT | -0.095 ± 0.073
CTACTGTC | 0.0804 ± 0.037
GAGGTCCC | -0.143 ± 0.013
ATATTACC | -0.168 ± 0.038
AATTATCG | 0.106 ± 0.11
TGCGCACA | 0.0366 ± 0.054
TACTAGTA | -0.163 ± 0.035
AGAAGAAA | -0.128 ± 0.046
AATATAGC | 0.11 ± 0.069
CGCGGGGC | -0.0991 ± 0.018
GCTAGCAA | 0.144 ± 0.015

Sequence | PBM E-score of 8-mer
GAGTTCGA | -0.163 ± 0.097
AATCGGGG | -0.0455 ± 0.027
ACATAGGA | -0.147 ± 0.015
GCTCTCGA | -0.0474 ± 0.016
CAGCCGCC | -0.0139 ± 0.06
ACTAGAGC | 0.124 ± 0.015
CCGACTCA | -0.00942 ± 0.079
CAAGAGTA | -0.157 ± 0.024
AGTTTGTA | -0.0961 ± 0.054
GAGACCAC | -0.121 ± 0.052
CGATCGGA | -0.276 ± 0.042
ATACCAGC | -0.08466 ± 0.00076
AGGTTGAT | -0.00768 ± 0.03
CGATTACG | -0.15 ± 0.053
CGTATTCA | 0.165 ± 0.051
ATATCGAC | 0.0242 ± 0.0054
ATTTGAAG | -0.268 ± 0.0032
GACCTACC | -0.153 ± 0.0062
TATAGAGA | -0.26 ± 0.073
CGCGACTC | 0.223 ± 0.0025
CGTGACAC | 0.398 ± 0.02
AGCAGATG | -0.0396 ± 0.044
CCATTTCA | -0.175 ± 0.11
CTCATGTA | -0.0428 ± 0.0056
GCAACGAC | 0.0956 ± 0.091

Sequence | PBM E-score of 8-mer
AATCGAAA | -0.0634 ± 0.045
AAAGCGGG | -0.188 ± 0.019
AAGTATTA | -0.0958 ± 0.063
GACCAAAC | -0.171 ± 0.071
TAGTCCGA | -0.0316 ± 0.0096
GCTCAGCA | -0.0718 ± 0.12
ACACCCGC | 0.376 ± 0.011
ACCCCTAC | -0.000965 ± 0.077
AATAGGTG | 0.428 ± 0.013
AGCCCTAT | -0.167 ± 0.019
CTTACACC | 0.395 ± 0.013
AAAAACAT | -0.23 ± 0.04
CTTGGACA | 0.00833 ± 0.024
CGTAGAAA | -0.228 ± 0.089
GAAACTTA | -0.0121 ± 0.078
CAGTCGCC | -0.193 ± 0.0073
TGAACCCA | -0.196 ± 0.048
AGTTTTTA | -0.15 ± 0.12
AGGAAGCA | -0.234 ± 0.057
AGATTCAT | -0.245 ± 0.0095
CAAGTGGA | 0.00639 ± 0.016
CCTGAGGA | -0.163 ± 0.029
AGCCGGAT | -0.161 ± 0.027
CACAACAA | 0.278 ± 0.0061
AATCTGGT | -0.215 ± 0.04

Sequence | PBM E-score of 8-mer
CGTACTAC | -0.192 ± 0.026
AAACTTTA | -0.0279 ± 0.07
ATAGGCTG | 0.0498 ± 0.019
AGTCAGGG | -0.258 ± 0.13
AGCCTTGC | 0.0184 ± 0.064
ACTATGTC | 0.0273 ± 0.0063
GCTTCGAC | -0.0774 ± 0.06
ACGTAGGG | -0.0279 ± 0.0026
GAGGATCA | -0.108 ± 0.011
CGAGCAGC | -0.1396 ± 0.0012
AGATGGAA | -0.131 ± 0.051
AATTTAGT | 0.00102 ± 0.03
TGCGGCCA | -0.197 ± 0.035
GTGGTTGA | -0.202 ± 0.019
CCAAATGG | -0.072 ± 0.021
AAGGCGTA | 0.107 ± 0.0048
CGGTTCGC | 0.279 ± 0.048
CCTAGGTA | 0.0108 ± 0.02
AGGCTCAG | -0.226 ± 0.055
GGCGGAAA | -0.0947 ± 0.048
ATACCCCC | -0.292 ± 0.03
CGGGAAAC | 0.13 ± 0.031
